This note sets out measurements from the supplement of paper PMC7826260.

This is one part of the list. Each Rep nickase domain was tested in vitro on the same pool of single strands (3 µM enzyme, 1 h, 37 °C); shown is the middle of each 90-letter strand. The score is log2 (uncut reads / reads without enzyme); more negative means more cut, near 0 not cut, and no call is made. Reads are scaled to the total; values above 0 arise when much of the pool is cut.

What all share (test): uncleaved DNA left, log2 of reads against the no-enzyme library (log2 ratio); higher = less cleavage (more negative = more Rep cleavage of the k-mer); sequences stand for … in CTCGTCCG…ACCGGAGA
Assay [1] has as its system T1, Rep nickase domain of Muscovy duck circovirus.
T1 sequence (residues 1-111, tag not shown): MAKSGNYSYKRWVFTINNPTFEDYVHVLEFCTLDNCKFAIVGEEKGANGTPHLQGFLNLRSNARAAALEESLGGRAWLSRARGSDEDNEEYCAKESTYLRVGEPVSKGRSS
The method, then:
(§1)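 A pool of 90-nt single-stranded DNAs with seven random bases just before the constant AC of the nick site (name = the seven bases) was cut by 3 µM recombinant His6-SUMO-tagged Rep nickase domain (300 nM DNA, 50 mM HEPES pH 8.0, 50 mM NaCl, 1 mM MnCl2, 1 h, 37 °C, three replicates). Uncut DNA was amplified and sequenced.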

Assay [2] concerns T2, Rep nickase domain of banana bunchy top virus.
T2 sequence (residues 1-94, tag not shown): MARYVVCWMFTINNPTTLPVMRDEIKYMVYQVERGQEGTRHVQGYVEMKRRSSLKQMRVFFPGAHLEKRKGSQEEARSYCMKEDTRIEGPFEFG
How it is done:
as §1

Assay [3] relates to T3, Rep nickase domain of cabbage leaf curl virus.
T3 sequence (residues 1-116, tag not shown): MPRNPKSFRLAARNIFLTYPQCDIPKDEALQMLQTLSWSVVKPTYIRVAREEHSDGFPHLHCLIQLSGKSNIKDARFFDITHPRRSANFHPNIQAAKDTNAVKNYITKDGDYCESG
How it is done: as §1
Assay [4] deals with T4, Rep nickase domain of chickpea chlorotic dwarf virus.
T4 sequence (residues 1-124, tag not shown): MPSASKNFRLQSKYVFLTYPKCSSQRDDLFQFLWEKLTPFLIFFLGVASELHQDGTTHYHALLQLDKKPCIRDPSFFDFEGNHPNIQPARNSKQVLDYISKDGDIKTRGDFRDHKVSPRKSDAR
How it is done:
as §1

The test system of assay [5] is T5, Rep nickase domain of faba bean necrotic yellows virus.
T5 sequence (residues 1-98, tag not shown): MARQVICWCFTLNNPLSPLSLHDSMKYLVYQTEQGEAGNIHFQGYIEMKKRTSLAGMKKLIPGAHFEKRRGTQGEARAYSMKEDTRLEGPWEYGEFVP
How it is done: as §1
The subject of assay [6] is T6, Rep nickase domain of maize striate mosaic virus.
T6 sequence (residues 1-117, tag not shown): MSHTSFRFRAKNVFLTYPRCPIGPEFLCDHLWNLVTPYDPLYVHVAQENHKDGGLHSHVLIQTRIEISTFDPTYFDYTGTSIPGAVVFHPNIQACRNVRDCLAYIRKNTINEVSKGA
The method, then: as §1
Assay [7] deals with T7, Rep nickase domain of porcine circovirus 2.
T7 sequence (residues 2-116, tag not shown): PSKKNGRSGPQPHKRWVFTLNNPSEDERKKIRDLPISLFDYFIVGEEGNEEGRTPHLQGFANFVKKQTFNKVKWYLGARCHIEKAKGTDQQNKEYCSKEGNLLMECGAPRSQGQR
The method, then:
as §1

Assay [8] relates to T8, Rep nickase domain of tomato yellow leaf curl virus.
T8 sequence (residues 1-136, tag not shown): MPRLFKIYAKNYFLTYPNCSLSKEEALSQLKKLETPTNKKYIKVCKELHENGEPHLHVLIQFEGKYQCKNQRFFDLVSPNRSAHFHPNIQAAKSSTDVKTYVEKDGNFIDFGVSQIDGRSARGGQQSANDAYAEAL
How it is done: as §1
The subject of assay [9] is T9, Rep nickase domain of wheat dwarf virus.
T9 sequence (residues 1-137, tag not shown): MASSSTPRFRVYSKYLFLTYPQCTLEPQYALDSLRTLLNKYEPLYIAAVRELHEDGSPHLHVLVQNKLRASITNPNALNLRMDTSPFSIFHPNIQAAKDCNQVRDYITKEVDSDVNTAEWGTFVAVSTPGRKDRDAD
How it is done:
as §1

For the sequence GAGTAAT, the “uncleaved DNA left (log2)” value was -0.695 in [1]; -2.41 in assay [2]; 0.232 in assay [3]; 0.45 in [4]; -2.45 in [5]; 1.48 in assay [6]. Moreover, the “uncleaved DNA left (log2)” value in assay [7] is -3.24; in assay [8], 0.108; in assay [9], 0.166.

For the sequence GATAGTA, the “uncleaved DNA left (log2)” value is -0.0388 in assay [1]; 0.0972 in assay [2]; 0.284 in [3]; -0.0146 in assay [4]; 0.105 in assay [5]; 0.733 in [6]. For the same sequence, the “uncleaved DNA left (log2)” value is -0.0391 in assay [7], 0.143 in assay [8] and 0.183 in assay [9].

GAGCATC: the “uncleaved DNA left (log2)” value in [1] is -0.0154; in [2], 0.0771; in [3], 0.415; in assay [4] it was 1.21; in assay [5], 0.0113; in assay [6] it was 1.42. The “uncleaved DNA left (log2)” value in [7] is -0.0225; in assay [8], 0.0836; in assay [9], 0.0812.

Consider AAGGGTT, for which the “uncleaved DNA left (log2)” value in [1] was 0.155; in assay [2] it was -0.0148; in assay [3] it was 0.102; in assay [4] it was 1.47; in assay [5] it was -0.0812; in assay [6] it was 1.72. The entries for the “uncleaved DNA left (log2)” value in assay [7], in assay [8] and in [9] were -0.0847, -0.146 and -0.0295, respectively.

TGGTCGT: the “uncleaved DNA left (log2)” value in assay [1] is 0.0855; in assay [2], 0.0507; in [3], 0.112; in [4] it was 0.0666; in assay [5] it was 0.114; in assay [6], -0.289. Besides, the “uncleaved DNA left (log2)” value in [7] was found to be 0.00951; in [8] it was 0.12; in assay [9], 0.0399.

Take CGTGCCA: the “uncleaved DNA left (log2)” value was -0.00228 in assay [1]; -0.0323 in assay [2]; 0.165 in assay [3]; 0.232 in [4]; 0.00992 in assay [5]; 0.232 in assay [6]. Besides, the “uncleaved DNA left (log2)” value in assay [7] is -0.0934; in [8] it was 0.14; in assay [9] it was 0.00626.

As for AGCGCTT, the “uncleaved DNA left (log2)” value in assay [1] was 0.0708; in assay [2], 0.0982; in [3] it was 0.086; in assay [4], 0.458; in assay [5], -0.0346; in assay [6], 1.51. The “uncleaved DNA left (log2)” value in assay [7] is 0.0617; in assay [8], -0.047; in assay [9] it was 0.0275.

As for AAACATA, the “uncleaved DNA left (log2)” value was -0.0193 in assay [1]; 0.107 in assay [2]; -0.257 in assay [3]; -2.45 in assay [4]; 0.0235 in assay [5]; -0.402 in [6]. For the same sequence, the results for the “uncleaved DNA left (log2)” value in [7], in assay [8] and in [9] were -0.0207, 0.0232 and 0.011, respectively.

For GCTTAAG, the “uncleaved DNA left (log2)” value in assay [1] is -0.0579; in assay [2], 0.071; in assay [3], -0.496; in assay [4], -0.49; in [5] it was 0.104; in assay [6] it was -1.04. Further, the “uncleaved DNA left (log2)” value in assay [7] is 0.23; in [8], 0.0575; in [9] it was -0.0935.

As for ATTTGGA, the “uncleaved DNA left (log2)” value in assay [1] was 0.0049; in assay [2], -0.0826; in [3], -0.138; in [4], -0.32; in assay [5], -0.0405; in assay [6], -0.882. The “uncleaved DNA left (log2)” value in assay [7] was -0.121; in assay [8], -0.0156; in [9], -0.0837.

Take GACTACC: the “uncleaved DNA left (log2)” value in assay [1] is 0.0646; in [2], 0.0587; in assay [3] it was 0.142; in assay [4] it was -0.548; in assay [5] it was -0.0909; in assay [6], 0.728. Besides, the “uncleaved DNA left (log2)” value in assay [7] was -0.623; in assay [8], -0.0966; in assay [9] it was -0.00773.

CCTCGTC: the “uncleaved DNA left (log2)” value in assay [1] is 0.0237; in assay [2], -0.0847; in assay [3] it was -0.222; in [4], -0.494; in [5] it was 0.0113; in assay [6], -0.773. The figures for the “uncleaved DNA left (log2)” value in assay [7], in assay [8] and in assay [9] were -0.0172, -0.138 and -0.162, respectively.

On to ATCTTGT, for which the “uncleaved DNA left (log2)” value in assay [1] was -0.0996; in assay [2], -0.0919; in assay [3] it was -0.472; in assay [4], -0.639; in assay [5] it was 0.0195; in assay [6], -1.07. In addition, the “uncleaved DNA left (log2)” value in assay [7] is -1.12; in assay [8] it was -0.0486; in assay [9], 0.0276.

Take ACCCCAC: the “uncleaved DNA left (log2)” value was 0.0371 in assay [1]; -0.0665 in [2]; -0.244 in [3]; -0.444 in assay [4]; -0.0492 in [5]; -0.71 in assay [6]. In addition, the “uncleaved DNA left (log2)” value in assay [7] was -0.043; in assay [8], -0.104; in [9], -0.0554.

On to CGTGGAC, for which the “uncleaved DNA left (log2)” value in assay [1] is -0.0936; in assay [2] it was -0.0277; in assay [3], 0.617; in assay [4] it was 1.65; in assay [5], -0.138; in [6], 1.95. Also, the “uncleaved DNA left (log2)” value in assay [7] was 0.0338; in assay [8], -0.0259; in assay [9], -0.0267.
